In PMC6919601, “Identification of Plasmodium dipeptidyl aminopeptidase allosteric inhibitors by high throughput screening” (PLoS ONE, 2019):
Among all 110,000 compounds or so, about 230 (0.21%) showed an effect of 50% or more. Some of the results follow.

Each compound was assayed against DPAP1 (Plasmodium falciparum, UniProt Q8IIJ9) (assay: primary screen, percent inhibition; read by cleavage of a fluorogenic dipeptide substrate; higher = more effect of the substance).
Parameters: species or system P. falciparum D10 trophozoite lysates; single well
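Note: 30 min substrate incubation versus DMSO and 10 µM JCP410 controls.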

Chain of DPAP1 (Q8IIJ9 whole entry, looked up): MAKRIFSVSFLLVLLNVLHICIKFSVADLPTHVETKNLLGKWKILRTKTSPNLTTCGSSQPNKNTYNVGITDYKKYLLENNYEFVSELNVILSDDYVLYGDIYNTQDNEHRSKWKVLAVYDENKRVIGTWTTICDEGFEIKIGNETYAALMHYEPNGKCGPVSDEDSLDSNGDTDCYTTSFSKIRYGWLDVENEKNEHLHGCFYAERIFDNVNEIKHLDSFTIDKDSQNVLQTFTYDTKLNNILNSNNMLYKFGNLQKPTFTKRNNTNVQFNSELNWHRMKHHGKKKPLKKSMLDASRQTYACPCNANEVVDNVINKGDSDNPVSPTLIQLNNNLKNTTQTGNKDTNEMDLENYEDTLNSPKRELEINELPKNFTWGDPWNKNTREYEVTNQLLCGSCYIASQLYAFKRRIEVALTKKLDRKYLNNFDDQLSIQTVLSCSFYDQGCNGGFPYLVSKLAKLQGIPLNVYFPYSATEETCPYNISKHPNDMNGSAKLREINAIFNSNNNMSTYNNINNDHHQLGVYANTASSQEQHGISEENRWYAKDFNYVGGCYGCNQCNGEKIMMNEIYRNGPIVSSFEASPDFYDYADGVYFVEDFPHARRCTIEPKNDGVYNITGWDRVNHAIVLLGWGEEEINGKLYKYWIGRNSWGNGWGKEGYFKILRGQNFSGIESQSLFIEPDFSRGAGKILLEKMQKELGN

Structure (SMILES) | % Inhibition @ 10 uM [%]
CC1=N/C(=C/c2cc3cccc(C)c3nc2Sc2ccccc2)C(=O)O1 | 0.275
COc1cccc(CCNC2C3CC4CC(C3)CC2C4)c1 (stereo not shown) | -0.0494
CC1=C(C(=O)OCc2ccccc2)C(c2ccc(OCc3ccccc3)cc2)NC(=O)N1 (stereo not shown) | 5.44
O=C(Nc1nc2c(s1)C(=O)CCC2)c1ccccc1Cl | -6.04
Cc1nn(Cc2noc(C(=O)NCCc3c[nH]c4ccccc34)n2)c(C)c1Br | -3.07
CCC(CC)C(=O)Nc1nnc(S(=O)(=O)N2CCCC2)s1 | 1.68
O=C(Nc1cccc(Cl)c1)N(CCCN1CCOCC1)Cc1ccccc1F | -2.29
Cc1nn(C(C)C(=O)NCCCN(C)C2CCCCC2)c(=O)c2nn(-c3ccccc3)c(C)c12 (stereo not shown) | 4.81
CCOc1ccccc1N(CC(=O)NCc1ccc(Cl)cc1)S(C)(=O)=O | -3.5
O=C1NC(=S)SC1=C1CCCCC1 | -0.0494
COCc1cc(C)nc(SCC(=O)Nc2ccc(Br)c(C)c2C)c1C#N | -5.63
CC(C)CSC1=NSC2=NC(=O)/C(=C\c3ccc(C(=O)O)cc3)C(=N)N12 | 0.968
Cc1nn(CC(=O)N2CCC(Cc3ccccc3)CC2)c(=O)c2ccccc12 | 0.565
Cc1ccc(NC(=O)C2CC=CCC2C(=O)O)c(C)c1 (stereo not shown) | -12
Cc1ccc(CNc2ncnc3c2nc2n3CCCCC2)cc1 | -4.33
COc1ccc(C2N(C(=O)C(F)(F)F)CCN2S(=O)(=O)c2ccccc2)cc1 (stereo not shown) | 1.91
CC1=C(C(=O)Nc2ccc(Cl)cc2)C(c2ccc(F)cc2)NC(=O)N1 (stereo not shown) | -1.2
COC(=O)C(Cc1ccccc1)NC(=O)C1CC1c1ccccc1 (stereo not shown) | -2.77
COc1ccc(C2Nc3ccccc3C(=O)N2C2CCCCC2)cc1 (stereo not shown) | -7.02
COc1cccc(Cn2c(=O)n(CCc3ccccc3)c(=O)c3cccnc32)c1 | 3.32
CC1CCCCN1Cc1ccc(-c2nn[nH]n2)cc1 (stereo not shown) | 1.12
CCOC(=O)c1cnc(-c2ccccc2)nc1NCc1ccccc1 | 1.91

Structure (SMILES) | % Inhibition @ 10 uM [%]
COc1ccc(OC)c(NC(=O)c2ccc(CSc3ncccn3)cc2)c1 | -2.98
Cc1ccc(-n2ncc3c(N4CCOCC4)ncnc32)cc1C | 3.36
O=C1CC(Sc2ccc(F)cc2)C(=O)N1c1ccccc1 (stereo not shown) | 0.528
CCc1ccc(S(=O)(=O)/N=C2\C=CC(=O)c3ccccc32)cc1 | -1.52
Cc1nc2c(C(=O)NCC3CCCO3)cnn2c(C)c1Cc1ccccc1Cl (stereo not shown) | -4.06
CC(C)CCNC(=O)c1noc2c1COc1ccccc1-2 | 88.5
CCN(CC)S(=O)(=O)c1ccc(-c2csc(Nc3ccc(F)cc3)n2)cc1 | -2.42
CC(C)N(Cc1nc(-c2ccccc2)no1)C(=O)CC(c1ccccc1)c1ccccc1 | -4.62
CCOC(=O)c1[nH]c2ccc(Cl)cc2c1-c1ccccc1 | 3.48
CN(CC(=O)NCCc1ccc(Cl)cc1)S(=O)(=O)c1ccc(-c2ccc(O)nn2)s1 | -3.49
Cc1ccc(C2C(C#N)=C(N)Oc3c2sc2ccccc32)o1 (stereo not shown) | -2.07
Cc1cc(-c2cccs2)c2c(N)c(C(=O)c3ccc4c(c3)OCCO4)sc2n1 | 3.62
CC(=O)N1CCN(C2=NC(=O)/C(=C/c3ccccc3O)S2)CC1 | 27.7
CC(C)OCCCn1c(=O)c2ccccc2n2c(CCC(=O)NCCC3=CCCCC3)nnc12 | -1.44
O=C(Nc1ccc(Cl)cc1)c1cc(Cl)cc(Cl)c1O | 0.22
Cc1ccc(-n2nc3c(=O)n(CCCC(=O)N4CCN(C5CCCCC5)CC4)nc(C)c3c2C)cc1 | -0.486
Cc1ccc2c(c1)cc1c(O)nncn12 | 3.3
CC1CCc2c(sc3ncnc(N4CC5(C)CC4CC(C)(C)C5)c23)C1 (stereo not shown) | -4.51
CN(Cc1c(Cl)cccc1Cl)CC(O)c1ccccc1 (stereo not shown) | -3.42
COc1ccc(/C(O)=C/C=N/Cc2ccc(F)cc2)cc1OC | -3.85
Cc1cccc(NC(=O)CN2C(=O)c3ccccc3S2(=O)=O)c1 | 11.9
CC(C)NS(=O)(=O)c1ccc(CCC(=O)NCc2ccco2)cc1 | -1.44

Structure (SMILES) | % Inhibition @ 10 uM [%]
Cc1cc(C)c(C)c(S(=O)(=O)Nc2cccnc2)c1C | -5.49
COc1ccc2cc(-n3nc(C)cc3C)c(-n3nc(C)cc3C)cc2c1 | 0.947
CCN(Cc1ccccc1)C(=O)c1sc2nc(C)c(Cl)c(C)c2c1N | -4.35
CCOC(=O)c1cc(-c2ccc(OC)cc2OC)no1 | 10.9
COCCNC(=O)CSc1[nH]c(-c2cccc(OC)c2)nc1-c1ccccc1 | 0.163
COc1ccc(-n2nnc3c(=O)n(CC(=O)N4CCC(C)CC4)cnc32)cc1 | -2.16
CC(Cc1ccccc1F)NCCN1CCCCC1 (stereo not shown) | -2.02
COc1ccc(/C=C/c2nn3c(-c4ccc(C)cc4)nnc3s2)cc1 | 6.01
CCOc1cccc2c1OC1(CCC(C)CC1)N1N=C(c3ccc(C)o3)CC21 (stereo not shown) | 21.3
O=C(NCCC1=CCCCC1)C1CCN(S(=O)(=O)c2ccc(-n3cnnn3)cc2)CC1 | 5.43
CC(C)(C)c1ccc(OCC(=O)NCc2nc(-c3ccccc3)no2)cc1 | -3.24
CCN(CC)CCN(CC)C1CCCC(C)C1 (stereo not shown) | -3.27
O=C(c1ccccc1)N1CC[C@H](O)[C@H]2CCCC[C@H]21 | -6.47
COc1cc2c(cc1OC)C(C(=O)NCC1CCCO1)C(c1cccs1)N(C)C2=O (stereo not shown) | 2.59
COc1ccc2cc3c(N)nn(C(=O)Cc4ccc(Cl)cc4)c3nc2c1 | 1.08
Cc1nn2c(O)cc(Cc3ccccc3)nc2c1-c1ccc(Cl)cc1 | -5.28
O=[N+]([O-])c1ccc(-n2nnc3ccccc32)c(C(F)(F)F)c1 | -0.415
CCN1CC2=C(OC(N)=C(C#N)C2c2ccccc2Cl)/C(=C/c2ccccc2Cl)C1 (stereo not shown) | 0.0719
CCc1nc(Nc2nc3ccccc3s2)nc2c1CCCC2 | -1.33
O=C(Cn1cc(S(=O)(=O)N2CCCC2)c(S(=O)(=O)N2CCCC2)c1)Nc1ccccn1 | 3.03
